The source gives no read counts; variants with many changes may rest on few reads.
B1: CPEB3 Ribozyme (parent)
chain: UAACAGGGGGCCACAGCAGAAGCGUUCACGUCGCAGCCCCUGUCAGAUUCUGGUGAAUCUGCGAAUUCUGCUGUAUAUCUC

Variants of: B1
Assay: self-cleavage, relative activity (ratio to wild type); higher = more cleavage; in vitro, sequencing
How it was run: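 Barcoded CPEB3 ribozyme mutants, produced by rounds of error-prone PCR, self-cleaved while being transcribed with T7 RNA polymerase for 5 hours at 37°C and during a subsequent 15 min DNase I step before EDTA was added. Sequencing of template-switched cDNA on Illumina gave cleaved and total reads, and DNA sequencing assigned barcodes to variants. Each variant's relative activity is its cleaved/total read fraction divided by the unmutated ribozyme's fraction, averaged across three batches. A variant needed a minimum of 5 reads.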
For UAACAGGGGGCCGCAGCAGAAGCGUACACGUCGCAGCCCCUGUCAGAUUCUGGCGAAUCUGCGAAUUCUGCUGUAUAUCUC [A13G U26A U54C], the self-cleavage was 0.8.
For UAACAGGGGGCCGCAGCAGAAGCAUUCACGUCGCGGCCCCUGUCAGAUUCUGGUGAAUCUGCGAAUUCAGCUGUAUAUCUC [A13G G24A A35G U69A], the self-cleavage was 0.22.
For UAACAGGGGGCCGCAGCAGAAGCGUUCACGUCGCAGCCCCUGUCAGAUUCUGUUGAAUCUGAGAAUUCUGCUGUAUAUCCC [A13G G53U C62A U80C], the self-cleavage was 0.21.
UAACAGGGGGCCGCAGCAGAAGCGUUCACAUCGCAGCCCCUGUCAGAUUCUGGUGUAUCUGCGAAUUCUGCUGUAUAUCCC [A13G G30A A56U U80C] showed a self-cleavage of 0.19.
Variant UAACAGGGGGCCGCAGCAGAAGCCUUCACGUCGCAGCCCCUGCCAGAUUCUGGUGAAUCUGCGAGUUCUGUUGUAUAUCUC [A13G G24C U43C A65G C71U] has a self-cleavage of 0.16.
In the case of UAACAGGGGGCCGCAGCAGAAUCGUUCUCGUCGCAGCCCCUGUCAGAUUCUGGUGAAUCUGCGAAUUCUGCUGUAUUUCUC [A13G G22U A28U A77U], the self-cleavage is reported as 0.08.
UAACAGGGGGCCGCAGCAGAAGCGUCCACGUCGCAGCCCCGGUCAGAUUCUGGUGAGCCUGCGAAUUCUGCUGUAUAUCUC [A13G U26C U41G A57G U58C] showed a self-cleavage of 0.
For UAACAGGGGGCCGCAGCAGAAGCGCUCACGUCGCAGCCCCUGUCAGAUUCUGGUGAAUCUGCGAACUCUGCAGUAUACCUC [A13G U25C U66C U72A U78C], the self-cleavage was 0.08.
For UAACAGGGGGCCGCAGCAGAAGCGUCCUCGUCGCUGCCCCUGUCAGAUUAUGGUGAAUCUGCGAAUUCUGCUGUAUACCUC [A13G U26C A28U A35U C50A U78C], the self-cleavage was 0.04.
In the case of UAACAGGGGGCCGCAGCAGAAGCGCUCACGUCGCAGCCCCUGUCGGAUUCUGGUGAAUCUGCGUAUUCUGCUGUAUAACUC [A13G U25C A45G A64U U78A], the self-cleavage is reported as 0.05.
UAACAGGGGGCCGCAGCAGAAGCGUCCACGUCGCAGCCCUUGUCAGAUUCUGGUGAAUCUGCGAGUUGUGCUGUAUAUCUC [A13G U26C C40U A65G C68G] showed a self-cleavage of 0.08.
UAACAGGGGGCCGCAGCAGAACCGUUCACGUCGCAGCCCCUGUCGGAUUCUGGUGAAUCUGCGAAUUCUGCUGUUUAUCUC [A13G G22C A45G A75U] gave a self-cleavage of 0.03.
UAACAGGGGGCCGCAGCAGAAGCGUACACGUCGCGGCCUCUGUCAGAUUCUGGUGAAUCUGCGAAUUCUGCUGUAUAUCCC [A13G U26A A35G C39U U80C] gave a self-cleavage of 0.66.
UAACAGGGGGCCGCAGCAGAAGCGAUCACGUCGCAGCCCCUGUCAGAUUCUGGCGAAUCUGCGAAUUCUGCUGCAUAUCUC [A13G U25A U54C U74C] showed a self-cleavage of 0.1.
Variant UAACAGGGGGCCGCAGCAGAAGCGCCCACGUCGCAGCCCCUGUCAGAUUCUGGCGAAUCUGCGAAUCCUGCUGUUUAUCUC [A13G U25C U26C U54C U67C A75U] has a self-cleavage of 0.12.
UAACAGGGGGCCGCAGCAGAAGCGUUCACUUCGCAGCCACUGUCAGAUUCUGGUGAAUCUGCGAAUUCUGCUGUAUAUCUC [A13G G30U C39A] showed a self-cleavage of 0.3.
In the case of UAACAGGGGGCCGCAGCAGAAGCGUCCACGUCGCAGCCCCUGUCAGAUUCUGGUGAAUCUGCGAAGUCUGCUGUAUAUCUC [A13G U26C U66G], the self-cleavage is reported as 0.18.
UAACAGGGGGCCGCAGCAGAAGCGUUCACAUCGCAGCCCCUGUCAGAUUCUGGUGAAUCUGCGAACUCUGCUGUAUAUCUC [A13G G30A U66C] showed a self-cleavage of 0.22.
Variant UAACAGGGGGCCGCAGCAGAAGCGCUCACGUCGCAGCCCCUGUCAGAUCCUGGCGAAUCUGCGAACUCUGCCGUAUAUCAC [A13G U25C U49C U54C U66C U72C U80A] has a self-cleavage of 0.
Work on UAACAGGGGGCCGCAGCAGAAGCGCUCGCGUCGCUGCCCCCGUCAGAUUCUGGUGAAUCGGCGAAUUCUGCUGUAUAUUUC [A13G U25C A28G A35U U41C U60G C79U] yielded a self-cleavage of 0.
Variant UAACAGGGGGCCGCAGCAGAAGCGUUCACGACGCAGCACCAGUCAGAUUCUGGUGGAUCUGCGAAUUCUGCUGUAUAUCUC [A13G U31A C38A U41A A56G] has a self-cleavage of 0.23.
Variant UAACAGGGGGCCGCAGCAGAAGCGUCCACGUCGCAGCUCCUGUCAGAUCCUGGUGAACCUGCGAAUUCUGCUGUAUAUCCC [A13G U26C C38U U49C U58C U80C] has a self-cleavage of 0.05.
Work on UAACAGGGGGCCGCAGCAGAAGCGUUCACGGCGCGGCCCCAGUCAGAUUCUGGUGAGUCUGCGAAUUCUGCUGUAUAUCUC [A13G U31G A35G U41A A57G] yielded a self-cleavage of 0.41.
Variant UAACAGGGGGCCGCAGCAGAAGCGUUCACGUCGCAGCCCCCGUCAGAUUCUGGUGAAUCUGCGAGUUCUGCCGUAUAUCUC [A13G U41C A65G U72C] has a self-cleavage of 0.19.
Work on UAACAGGGGGCCGCAGCAGAAGCGUUCACGACGCAGCCCCUGUCAGAUUCUGGUGAACCUGCGAAUUCUGCUGCAUAUCUC [A13G U31A U58C U74C] yielded a self-cleavage of 0.18.
Work on UAACAGGGGGCCGCAGCAGAAGCGUCCACGUCGCAGCCCCUGUCAGAUUCCGGUGAAUCUGCGAAUUCUGCUGUAUAUCUC [A13G U26C U51C] yielded a self-cleavage of 0.55.
For UAACAGGGGGCCGCAGCAGAAGCGUUCACGUCACAGCCCCUGUCAGAUUCUGGUGAAUCUGCGGAUUCUGCUGUAUAUCUC [A13G G33A A64G], the self-cleavage was 0.08.
With UAACAGGGGGCCGCAGCAGAAGCGCUCACGUCGCAGCCCCCGUCAGAUUCUGGUGAAUCUGCGAAUUCUGCUGUUUAUCUC [A13G U25C U41C A75U] the self-cleavage was 0.08.
In the case of UAACAGGGGGCCGCAGCAGAAGCGCUCACGUCGCAGCCCCUGUCAGAUCCUGGUGAAACUGAGAAUUCUGCAGUAUAGCUC [A13G U25C U49C U58A C62A U72A U78G], the self-cleavage is reported as 0.11.
In the case of UAACAGGGGGCCGCAGCAGAAGCGCUCACGUCGCAGCCCCUGUCAGAUUCUGGUGAAUCAGCGAACUCUGCCGUAUAUCUC [A13G U25C U60A U66C U72C], the self-cleavage is reported as 0.21.
UAACAGGGGGCCGCAGCAGAAGCGUUCACGUCCCAGCCCCUGUCAGAUUCUGGUGAAUCUGCGAAUUCUGCUGUAUAACUC [A13G G33C U78A] gave a self-cleavage of 0.06.
With UAACAGGGGGCCGCAGCAGAAGCGUUCACGCCGCAGCCCCUGUCAGGUUCUGGUGAAUCUGCGAAUUCUGCCGUAUAUCUC [A13G U31C A47G U72C] the self-cleavage was 0.24.
With UAACAGGGGGCCGCAGCAGAAGCGCUCACGUCGCAGCCCCUGUCGGACUCUGGUGAAUCUGCGAAUUCUGCUUUAUACCUC [A13G U25C A45G U48C G73U U78C] the self-cleavage was 0.31.
UAACAGGGGGCCGCAGCAGAAGCGCUCACGUCGCAGCCCCUGUCGGAUUCUUGUGAAUCUACGAAUUCUGCUGUAUAUCUC [A13G U25C A45G G52U G61A] showed a self-cleavage of 0.13.
